# Reference: the supplement of paper PMC11876631
# Changes are numbered by the printed parent chain. Names may count otherwise. ± gives the standard deviation of the averaged measurements. Laboratory Escherichia coli strains with one amino-acid change in an essential protein, pooled on minimal glucose agar with carbenicillin or gentamicin at twice the control MIC (plus kanamycin and chloramphenicol for the plasmids), 48 h. Fold change of barcode share against drug-free plates; higher = less susceptible. Active = above 20 in both replicates (the paper's putatively resistant). '<' = one read or none on drug, '>' = one read or none on a drug-free plate. Shares are relative, so most strains fall below 1 when a few take over. Listed are strains with at least 15 reads on both drug-free plates, and hits; most hits rest on fewer reference reads. Replicate rank correlation about 0.5. Edits are read from barcodes.
# B1: murC L318W (protein)
# chain: MNTQQLAKLRSIVPEMRRVRHIHFVGIGGAGMGGIAEVLANEGYQISGSDLAPNPVTQQLMNLGATIYFNHRPENVRDASVVVVSSAISADNPEIVAAHEARIPVIRRAEMLAELMRFRHGIAIAGTHGKTTTTAMVSSIYAEAGLDPTFVNGGLVKAAGVHARLGHGRYLIAEADESDASFLHLQPMVAIVTNIEADHMDTYQGDFENLKQTFINFLHNLPFYGRAVMCVDDPVIRELLPRVGRQTTTYGFSEDADVRVEDYQQIGPQGHFTLLRQDKEPMRVTLNAPGRHNALNAAAAVAVATEEGIDDEAILRAWESFQGTGRRFDFLGEFPLEPVNGKSGTAMLVDDYGHHPTEVDATIKAARAGWPDKNLVMLFQPHRFTRTRDLYDDFANVLTQVDTLLMLEVYPAGEAPIPGADSRSLCRTIRGRGKIDPILVPDPARVAEMLAPVLTGNDLILVQGAGNIGKIARSLAEIKLKPQTPEEEQHD
# B2: murC V82A (protein)
# chain: B1 chain with V82A, W318L
# B3: murC L318Q (protein)
# chain: B1 chain with W318Q
# B4: murC M188A (protein)
# chain: B1 chain with M188A, W318L
# B5: murC M188W (protein)
# chain: B1 chain with M188W, W318L
# Target: Escherichia coli (laboratory strain)
# Assay: barcode share on antibiotic plates over drug-free plates; higher = less susceptible
# Conditions: antibiotic: carbenicillin; 2× MIC (3.1 µg/mL)
# Description: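 A pool of E. coli strains, each edited to carry one amino-acid change in an essential protein, was grown for 48 h on minimal glucose agar with or without antibiotic; strain barcodes were sequenced; mean of two replicates.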
row,Protein,fold change of barcode share
1,B1,0.323 ± 0.053
2,B2,0.196 ± 0.024
3,B3,0.14 ± 0.035
4,B4,0.228 ± 0.062
5,B5,0.32 ± 0.15

# Same assay, conditions: antibiotic: gentamicin; 2× MIC (MIC 0.45 µg/mL)
row,Protein,fold change of barcode share
1,B1,0.016 ± 0.015
2,B3,0.0115 ± 0.011
3,B4,0.00701 ± 0.0049
4,B5,0.00617 ± 0.0025
